Where two headings read alike, the source gives them in different places. These are yes or no findings as the source states them, for the method shown. Some binding calls cover weakened binding; strength is not graded here.
T1: FloA (Bacillus subtilis) (UniProt P54466)
T1 sequence: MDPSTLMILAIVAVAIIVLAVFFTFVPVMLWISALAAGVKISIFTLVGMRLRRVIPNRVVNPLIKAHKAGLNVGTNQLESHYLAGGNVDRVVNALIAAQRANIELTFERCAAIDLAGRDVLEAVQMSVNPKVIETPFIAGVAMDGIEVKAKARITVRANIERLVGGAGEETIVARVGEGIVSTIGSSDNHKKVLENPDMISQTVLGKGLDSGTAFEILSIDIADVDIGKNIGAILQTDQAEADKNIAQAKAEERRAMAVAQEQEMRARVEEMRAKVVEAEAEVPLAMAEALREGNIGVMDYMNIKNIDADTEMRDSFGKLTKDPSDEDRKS

Protein sequences, listed by entry. Tags and fused reporters are not part of them.
UniProt P23545: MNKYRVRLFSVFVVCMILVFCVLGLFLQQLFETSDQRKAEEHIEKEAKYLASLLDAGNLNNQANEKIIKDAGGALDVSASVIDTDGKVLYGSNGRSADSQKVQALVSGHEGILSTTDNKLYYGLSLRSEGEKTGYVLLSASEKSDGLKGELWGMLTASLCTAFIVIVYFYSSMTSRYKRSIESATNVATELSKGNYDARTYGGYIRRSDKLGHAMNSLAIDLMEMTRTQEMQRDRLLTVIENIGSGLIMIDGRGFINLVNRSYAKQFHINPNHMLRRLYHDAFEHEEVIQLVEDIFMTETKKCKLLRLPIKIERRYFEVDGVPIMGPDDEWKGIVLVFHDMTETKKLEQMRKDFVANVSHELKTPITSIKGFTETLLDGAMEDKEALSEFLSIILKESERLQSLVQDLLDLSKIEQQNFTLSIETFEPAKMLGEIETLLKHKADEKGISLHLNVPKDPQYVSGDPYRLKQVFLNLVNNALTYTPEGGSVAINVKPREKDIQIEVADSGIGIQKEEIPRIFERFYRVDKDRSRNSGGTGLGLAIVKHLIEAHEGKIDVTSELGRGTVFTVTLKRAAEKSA

T2: FloT (Bacillus subtilis) (UniProt O32076)
T2 sequence: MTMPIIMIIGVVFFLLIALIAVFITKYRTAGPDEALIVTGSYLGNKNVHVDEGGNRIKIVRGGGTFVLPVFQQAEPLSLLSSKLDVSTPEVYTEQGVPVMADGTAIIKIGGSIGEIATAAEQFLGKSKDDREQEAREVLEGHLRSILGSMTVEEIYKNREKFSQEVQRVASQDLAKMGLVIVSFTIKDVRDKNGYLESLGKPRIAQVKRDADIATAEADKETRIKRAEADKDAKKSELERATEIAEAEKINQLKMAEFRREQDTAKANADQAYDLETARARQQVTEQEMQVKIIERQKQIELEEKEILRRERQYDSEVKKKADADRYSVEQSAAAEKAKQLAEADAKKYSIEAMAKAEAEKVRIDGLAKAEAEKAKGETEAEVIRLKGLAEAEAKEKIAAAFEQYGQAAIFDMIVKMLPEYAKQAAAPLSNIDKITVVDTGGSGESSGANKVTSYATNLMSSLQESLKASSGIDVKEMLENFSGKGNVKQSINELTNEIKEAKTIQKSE


Key:
FloA (Bacillus subtilis) [1] = target: T1, FloA (Bacillus subtilis); assay: two-hybrid; bacterial two-hybrid (adenylate cyclase T25/T18 fusions from pKNT25 and pUT18) in E. coli BTH101; lacZ reporter, X-Gal plates 48 h at 30°C and Miller units; positive signal defined as ≥ 700 Miller Units
FloT (Bacillus subtilis) [2] = target: T2, FloT (Bacillus subtilis); assay: as above
PhoR (Bacillus subtilis) = PhoR (Bacillus subtilis) (UniProt P23545); assay: two-hybrid; bacterial two-hybrid of PhoR with PhoR and ResE with ResE (pKNT25 and pUT18) in E. coli BTH101, without and with low, medium or high levels of His6-FloA or His6-FloT from pSEVA-621, -631, -641; Miller units
FloA (Bacillus subtilis) [3] = target: T1, FloA (Bacillus subtilis); assay: two-hybrid; bacterial two-hybrid (adenylate cyclase T25/T18 fusions from pKNT25 and pUT18) in E. coli BTH101; lacZ reporter, X-Gal plates 48 h at 30°C and Miller units; positive signal defined as ≥ 700 Miller Units; remark: listed apart in the source
FloT (Bacillus subtilis) [4] = target: T2, FloT (Bacillus subtilis); assay: as above; remark: listed apart in the source
ResE (Bacillus subtilis) = ResE (Bacillus subtilis) (UniProt P35164); assay: two-hybrid; bacterial two-hybrid of PhoR with PhoR and ResE with ResE (pKNT25 and pUT18) in E. coli BTH101, without and with low, medium or high levels of His6-FloA or His6-FloT from pSEVA-621, -631, -641; Miller units

Molecule	binding (FloA (Bacillus subtilis) [1])	binding (FloT (Bacillus subtilis) [2])	binding (PhoR (Bacillus subtilis))	binding (FloA (Bacillus subtilis) [3])	binding (FloT (Bacillus subtilis) [4])	binding (ResE (Bacillus subtilis))
PhoR (from UniProt P23545 1-579)	binds	no binding	binds	–	–	–
FloA (protein, UniProt P54466 1-331) MDPSTLMILAIVAVAIIVLAVFFTFVPVMLWISALAAGVKISIFTLVGMRLRRVIPNRVVNPLIKAHKAGLNVGTNQLESHYLAGGNVDRVVNALIAAQRANIELTFERCAAIDLAGRDVLEAVQMSVNPKVIETPFIAGVAMDGIEVKAKARITVRANIERLVGGAGEETIVARVGEGIVSTIGSSDNHKKVLENPDMISQTVLGKGLDSGTAFEILSIDIADVDIGKNIGAILQTDQAEADKNIAQAKAEERRAMAVAQEQEMRARVEEMRAKVVEAEAEVPLAMAEALREGNIGVMDYMNIKNIDADTEMRDSFGKLTKDPSDEDRKS	–	–	–	binds	binds	–
ResE (protein, UniProt P35164 1-589) MKFWKSVVGKLWFTILSLVLIVLFILTVLLLEFIENYHVEEAENDLTQLANKVAVILENHEDQALARSITWELADNLTSIAIIQDEKNHWYSPNDKNRLSSITVEQIQHDKDLNKALKDHKKVSKRTGLSDTDTDNERLIVGVPYEKDGKKGMVFLSQSLLAVKDTTKHTTRYIFLAAGIAIVLTTFFAFFLSSRVTYPLRKMREGAQDLAKGKFDTKIPILTQDEIGELATAFNQMGRQLNFHINALNQEKEQLSNILSSMADGVITINIDGTILVTNPPAERFLQAWYYEQNMNIKEGDNLPPEAKELFQNAVSTEKEQMIEMTLQGRSWVLLMSPLYAESHVRGAVAVLRDMTEERRLDKLREDFIANVSHELRTPISMLQGYSEAIVDDIASSEEDRKEIAQIIYDESLRMGRLVNDLLDLARMESGHTGLHYEKINVNEFLEKIIRKFSGVAKEKNIALDHDISLTEEEFMFDEDKMEQVFTNLIDNALRHTSAGGSVSISVHSVKDGLKIDIKDSGSGIPEEDLPFIFERFYKADKARTRGRAGTGLGLAIVKNIVEAHNGSITVHSRIDKGTTFSFYIPTKR	–	–	–	no binding	binds	binds
